Substitutions are numbered along the chain they refer to; changes in the protein carry UniProt numbers. Some of the results follow.

The labels stand for the following.
B1: ACAUCAU (DNA:RNA)
RNA: GGGAGACCGGAAUUCAGAUUGUCCACAUCAUUUAAAUCCCGUCGUAGCCACCA
DNA 1: CAATCTGAATTCCGGTCTCCC
DNA 2: TGGTGGCTACGACGGGATT
B2: AUCAUAU (DNA:RNA)
RNA: B1 RNA with C26U, A27C, U28A, C29U
DNA 1: CAATCTGAATTCCGGTCTCCC
DNA 2: TGGTGGCTACGACGGGATT
B3: CGUAUUC (DNA:RNA)
RNA: GGGAGACCGGAAUUCAGAUUGUCCCGUAUUCUUAAAUCCCGUCGUAGCCACCA
DNA 1: CAATCTGAATTCCGGTCTCCC
DNA 2: TGGTGGCTACGACGGGATT
B4: GGUACGU (DNA:RNA)
RNA: B3 RNA with C25G, U29C, U30G, C31U
DNA 1: CAATCTGAATTCCGGTCTCCC
DNA 2: TGGTGGCTACGACGGGATT
B5: GUGAAUU (DNA:RNA)
RNA: B3 RNA with C25G, G26U, U27G, U29A, C31U
DNA 1: CAATCTGAATTCCGGTCTCCC
DNA 2: TGGTGGCTACGACGGGATT
B6: GCCAUGU (DNA:RNA)
RNA: B1 RNA with A25G, A27C, U28A, C29U, A30G
DNA 1: CAATCTGAATTCCGGTCTCCC
DNA 2: TGGTGGCTACGACGGGATT
B7: GGGCAUG (DNA:RNA)
RNA: B3 RNA with C25G, U27G, A28C, U29A, C31G
DNA 1: CAATCTGAATTCCGGTCTCCC
DNA 2: TGGTGGCTACGACGGGATT
B8: GUACGGU (DNA:RNA)
RNA: B1 RNA with A25G, C26U, U28C, C29G, A30G
DNA 1: CAATCTGAATTCCGGTCTCCC
DNA 2: TGGTGGCTACGACGGGATT
B9: GUAGCCU (DNA:RNA)
RNA: B1 RNA with A25G, C26U, U28G, A30C
DNA 1: CAATCTGAATTCCGGTCTCCC
DNA 2: TGGTGGCTACGACGGGATT
B10: UGAGGUC (DNA:RNA)
RNA: B3 RNA with C25U, U27A, A28G, U29G
DNA 1: CAATCTGAATTCCGGTCTCCC
DNA 2: TGGTGGCTACGACGGGATT
B11: GCCCGGA (DNA:RNA)
RNA: B1 RNA with A25G, A27C, U28C, C29G, A30G, U31A
DNA 1: CAATCTGAATTCCGGTCTCCC
DNA 2: TGGTGGCTACGACGGGATT
B12: GGCUGUA (DNA:RNA)
RNA: B3 RNA with C25G, U27C, A28U, U29G, C31A
DNA 1: CAATCTGAATTCCGGTCTCCC
DNA 2: TGGTGGCTACGACGGGATT
B13: ACCAUAU (DNA:RNA)
RNA: B1 RNA with A27C, U28A, C29U
DNA 1: CAATCTGAATTCCGGTCTCCC
DNA 2: TGGTGGCTACGACGGGATT
B14: AAAGUUA (DNA:RNA)
RNA: B1 RNA with C26A, U28G, C29U, A30U, U31A
DNA 1: CAATCTGAATTCCGGTCTCCC
DNA 2: TGGTGGCTACGACGGGATT
B15: AUUCAGC (DNA:RNA)
RNA: B3 RNA with C25A, G26U, A28C, U29A, U30G
DNA 1: CAATCTGAATTCCGGTCTCCC
DNA 2: TGGTGGCTACGACGGGATT
B16: UUAGGUG (DNA:RNA)
RNA: B1 RNA with A25U, C26U, U28G, C29G, A30U, U31G
DNA 1: CAATCTGAATTCCGGTCTCCC
DNA 2: TGGTGGCTACGACGGGATT
B17: UAGCACC (DNA:RNA)
RNA: B3 RNA with C25U, G26A, U27G, A28C, U29A, U30C
DNA 1: CAATCTGAATTCCGGTCTCCC
DNA 2: TGGTGGCTACGACGGGATT
B18: ACAUGGC (DNA:RNA)
RNA: B1 RNA with C29G, A30G, U31C
DNA 1: CAATCTGAATTCCGGTCTCCC
DNA 2: TGGTGGCTACGACGGGATT
B19: GUCUUGA (DNA:RNA)
RNA: B1 RNA with A25G, C26U, A27C, C29U, A30G, U31A
DNA 1: CAATCTGAATTCCGGTCTCCC
DNA 2: TGGTGGCTACGACGGGATT
B20: UGCAUGG (DNA:RNA)
RNA: B3 RNA with C25U, U27C, U30G, C31G
DNA 1: CAATCTGAATTCCGGTCTCCC
DNA 2: TGGTGGCTACGACGGGATT
B21: UCCACGG (DNA:RNA)
RNA: B1 RNA with A25U, A27C, U28A, A30G, U31G
DNA 1: CAATCTGAATTCCGGTCTCCC
DNA 2: TGGTGGCTACGACGGGATT
B22: CUAAUGG (DNA:RNA)
RNA: B3 RNA with G26U, U27A, U30G, C31G
DNA 1: CAATCTGAATTCCGGTCTCCC
DNA 2: TGGTGGCTACGACGGGATT
B23: GACGGCG (DNA:RNA)
RNA: GGGAGACCGGAAUUCAGAUUGUCCGACGGCGUUAAAUCCCGUCGUAGCCACCA
DNA 1: CAATCTGAATTCCGGTCTCCC
DNA 2: TGGTGGCTACGACGGGATT
B24: UUAUAGG (DNA:RNA)
RNA: B1 RNA with A25U, C26U, C29A, A30G, U31G
DNA 1: CAATCTGAATTCCGGTCTCCC
DNA 2: TGGTGGCTACGACGGGATT
B25: CACAGGA (DNA:RNA)
RNA: B23 RNA with G25C, G28A, C30G, G31A
DNA 1: CAATCTGAATTCCGGTCTCCC
DNA 2: TGGTGGCTACGACGGGATT
B26: UAUCGUG (DNA:RNA)
RNA: B23 RNA with G25U, C27U, G28C, C30U
DNA 1: CAATCTGAATTCCGGTCTCCC
DNA 2: TGGTGGCTACGACGGGATT
B27: AGUACGA (DNA:RNA)
RNA: B3 RNA with C25A, U29C, U30G, C31A
DNA 1: CAATCTGAATTCCGGTCTCCC
DNA 2: TGGTGGCTACGACGGGATT
B28: UUUGUUG (DNA:RNA)
RNA: B3 RNA with C25U, G26U, A28G, C31G
DNA 1: CAATCTGAATTCCGGTCTCCC
DNA 2: TGGTGGCTACGACGGGATT
B29: UGCAGGU (DNA:RNA)
RNA: B3 RNA with C25U, U27C, U29G, U30G, C31U
DNA 1: CAATCTGAATTCCGGTCTCCC
DNA 2: TGGTGGCTACGACGGGATT
B30: UUACUCC (DNA:RNA)
RNA: B3 RNA with C25U, G26U, U27A, A28C, U30C
DNA 1: CAATCTGAATTCCGGTCTCCC
DNA 2: TGGTGGCTACGACGGGATT
B31: AGUAGAG (DNA:RNA)
RNA: B3 RNA with C25A, U29G, U30A, C31G
DNA 1: CAATCTGAATTCCGGTCTCCC
DNA 2: TGGTGGCTACGACGGGATT

For the test, the target named is T1, RBFOX1 RRM (Homo sapiens, UniProt Q9NWB1 109-208).
T1 sequence: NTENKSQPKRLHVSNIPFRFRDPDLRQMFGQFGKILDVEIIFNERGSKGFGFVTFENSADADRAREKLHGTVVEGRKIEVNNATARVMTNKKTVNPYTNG
The test is described as follows: EMSA; HiTS-Eq, 1 nM pool, 10 min; buffer printed only for the single-RNA assays: 10 mM Tris pH 7.5, 150 mM NaCl, 3.4 mM EDTA, 0.001% NP-40, 30 C. To be noted: tags: His6 N-terminal (pET28a); label: 5' 32P. An outline of the steps: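 Relative association constants, normalised to the cognate motif, were derived by comparing read counts of each RNA species with those of the control reaction. The RNA sequenced was the free fraction, separated by 8% native PAGE after a 10 min equilibration in 50 µL of 1 nM 5′-radiolabelled RNA (7 randomized nucleotides) with increasing concentrations of purified wild-type or mutant RbFox RRM.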
A general note: In EMSA bound probe runs differently from free probe, usually more slowly.
For the molecule B1, the binding signal is 0.000193 KA relative to UGCAUGU.

B2: the binding signal is 0.00066 KA relative to UGCAUGU.

On to B3, for which the binding signal is 0.0066 KA relative to UGCAUGU.

For the molecule B4, the binding signal is 0.0141 KA relative to UGCAUGU.

Turning to B5, the binding signal was 0.0128 KA relative to UGCAUGU.

Consider B6, for which the binding signal was 0.0117 KA relative to UGCAUGU.

Turning to B7, the binding signal was 0.519 KA relative to UGCAUGU.

For B8, the binding signal was 0.00854 KA relative to UGCAUGU.

Regarding B9, the binding signal is 0.00648 KA relative to UGCAUGU.

On to B10, for which the binding signal was 0.0144 KA relative to UGCAUGU.

Consider B11, for which the binding signal was 0.0142 KA relative to UGCAUGU.

With B12, the binding signal is 0.0154 KA relative to UGCAUGU.

Regarding B13, the binding signal is 0.00164 KA relative to UGCAUGU.

For the molecule B14, the binding signal is 0.00214 KA relative to UGCAUGU.

In the case of B15, the binding signal is 0.0054 KA relative to UGCAUGU.

With B16, the binding signal is 0.0203 KA relative to UGCAUGU.

On to B17, for which the binding signal is 0.0118 KA relative to UGCAUGU.

B18: the binding signal was 0.00822 KA relative to UGCAUGU.

With B19, the binding signal was 0.0212 KA relative to UGCAUGU.

As for B20, the binding signal is 0.965 KA relative to UGCAUGU.

Regarding B21, the binding signal was 0.00671 KA relative to UGCAUGU.

Turning to B22, the binding signal was 0.00979 KA relative to UGCAUGU.

For B23, the binding signal is 0.0274 KA relative to UGCAUGU.

B24: the binding signal was 0.00353 KA relative to UGCAUGU.

As for B25, the binding signal was 0.00865 KA relative to UGCAUGU.

With B26, the binding signal is 0.0156 KA relative to UGCAUGU.

Consider B27, for which the binding signal is 0.00993 KA relative to UGCAUGU.

Take B28: the binding signal is 0.0349 KA relative to UGCAUGU.

Regarding B29, the binding signal was 0.0179 KA relative to UGCAUGU.

Turning to B30, the binding signal was 0.00151 KA relative to UGCAUGU.

As to B31, the binding signal was 0.011 KA relative to UGCAUGU.

The values are drawn from PMC9911399, “Two distinct binding modes provide the RNA-binding protein RbFox with extraordinary sequence specificity”.
